Experimental data published in patent US10172915B2, “Methods and compositions for activation of sirtuins with Annexin A1 peptides” (Duke University, priority 2013, dated 2019).

How the values were obtained:
[1] = tested on: adult rat ventricular cardiomyocytes (ARVCs); experiment: Simulated IR (OGD/reoxygenation) injury in adult rat ventricular cardiomyocytes; format: cell-based
Experimental: Following standard isolation and culture protocols, ARVCs were exposed to ANXA1sp (5, 10, 30, 60 μM) for 1 h, subjected to 2 h of oxygen glucose deprivation (OGD), followed by reoxygenation for 3, 6, or 24 h (FIG. 1). A scrambled peptide and dexamethasone (DEX) were used as negative and positive controls, respectively. ARVC injury was determined at the end of reoxygenation as levels of cardiac Troponin I (cTnI) in the culture medium using high-sensitivity ELISA (Life Diagnostics), viability using cell morphology and Trypan blue exclusion, and apoptosis using a Cell Death ELISA (Roche).
ARVCs were isolated from adult (12-15 weeks old) male Sprague-Dawley (SD) rats using a commercial isolation kit (Cellutron, Cat. #AC-7031), according to the manufacturer's protocol. Briefly, male Sprague-Dawley (SD) rats (300-350 g) were anesthetized with 2% isoflurane in oxygen in a plastic box. Ice-cold WB buffer (5 ml) was injected in both ventricles using a 26-gauge needle to arrest the heart and wash out blood. The heart was then quickly removed, carefully cannulated onto the Langendorff perfusion apparatus, and retrogradely perfused with 40 ml B1 buffer at the flow rate of 5 ml/min. The heart was then perfused in a recirculating mode with 50 ml B2 buffer. After 10 min, 100 μl of SB solution was quickly added in the B2 flow through and mixed well. The heart was continually perfused for 10 min. Additional 100 μl SB was added in the B2-SB flow through and continued to perfuse the heart for 15 min. The heart was removed from the apparatus, and the ventricles were separated below atrioventricular junction and cut into several sections in 24 ml of recirculated flow through. The ventricles were agitated in a shaking bath (37° C.) at a rate of 100 rpm for 15 min to release rod-shaped cardiomyocytes. The ventricles were slightly and gently triturated with the transfer pipette from which the tip was broken off and the sharp edges were softened by flame melting. The myocytes were filtered through nylon mesh (250 μM) and allowed to settle by gravity for 2 min. After centrifugation at 500 g for 3 min at room temperature, the cell pellet was resuspended in 10 ml of B3 buffer. After the myocytes were pelleted by gravity for 13 min in the 20 ml of 6.5% BSA in B3 buffer, the myocytes was resuspended in 12 ml of AS Medium (Cellutron Cat#: M-8033). Myocytes were plated in culture dishes pre-coated with laminin (Invitrogen Cat#: 23017-015). Two hours after plating, cells were washed with serum free AW medium (Cellutron Cat#: M-8034), and non-adhering cells were removed from the culturing system. Myocytes were incubated with AW medium in a 37° C. and 5% CO2 growth chamber overnight.
After 24 h incubation, ARVCs were pre-treated with known concentrations of ANXA1sp or scrPEP in growth medium for 1 h, and subjected to 2 h oxygen-glucose-deprivation (OGD: DMEM no glucose, 85% N2/10% H2/5% CO2) in a OGD station chamber/Anaerobic System (Farma Scientific), followed by reoxygenation with 10 μM ANXA1sp or scrPEP in growth medium for 3, 6, and 24 h in a 37° C. and 5% CO2 growth chamber, respectively.

[2] = tested on: Sprague-Dawley rats, cardioplegic arrest; experiment: Rat model of cardiopulmonary bypass with cardioplegic arrest (CPB/CA); format: in vivo
Experimental: Male Sprague-Dawley rats (12-15 weeks old) were randomly assigned to three groups: CA, CA+ANXA1sp, or CA+scrambled peptide. […] Heparin was administered before initiation of mildly hypothermic CPB (33° C.). A balloon catheter was placed in the ascending aorta and positioned approximately 3-4 mm proximal to the aortic valve under echocardiographic guidance, and inflated before cardioplegia was administered distal to the balloon and into the coronary vasculature. Heart function was monitored with electrocardiography (EKG) and echocardiography, and additional cardioplegia was administered as needed to maintain cardiac arrest. Acid base status, gas exchange, electrolyte, hemoglobin and glucose concentrations were measured with serial arterial blood gases (GEM Premier 3000).
All animals underwent 75 minutes of moderate hypothermic (33° C.) CPB with 45 minutes of cardiac arrest using blood cardioplegia, followed by reperfusion for 3 h, 6 h or 24 h (n=8/group and time point). Treated animals received ANXA1sp (3 mg/kg total) before (iv), during (with cardioplegia), and after CPB (iv), whereas CA animals received an equal volume of vehicle (1% DMSO in saline (FIG. 10B). At the end of the ischemic period the aortic balloon was deflated and cardioplegia was allowed to wash out of the heart. The animal was weaned off the heart-lung machine as tolerated; epinephrine, phenylephrine, and lidocaine were administered as needed to maintain appropriate perfusion and blood pressure. Animals were recovered for a period of 3, 6, or 24 hours of reperfusion (n=8/group and time point), final endpoint measurements obtained, then sacrificed via exsanguination. Immediately following sacrifice, left ventricular myocardial samples were preserved for study.
The following endpoints were assessed: plasma cTnI and heart-type fatty acid binding protein (HFABP, ELISA, Life Diagnosis); myocardial apoptosis as levels of cleaved caspase-3 (Western blot) and TUNEL assays (Roche); and echocardiographic left ventricular function. Myocardial levels of TNFα, IL-6, and myeloperoxidase (MPO) were analyzed by ELISA. SIRT3 and cytochrome c were measured in isolated mitochondria by Western blot.
Blood samples were collected from each rat at 24 h after CPB/DHCA. Samples were immediately cooled to 4° C. and centrifuged at 3,000 rpm for 10 minutes at 4° C. Serum was collected and stored at −80° C. until assay. Whole cell lysate from heart tissues was obtained according to manufacturer's instruction (Panomics) and used for measurement of pro-inflammatory cytokines IL-6, TNFα and MPO by an ELISA method (Thermo Scientific). Cellular levels of ATP were measured by ELISA (Abeam).
TUNEL assay was performed using the In Situ Cell Death Detection Kit (Roche Molecular Biochemicals) according to manufacturer's protocol. Briefly, paraffin sections of heart tissue were deparaffinized as described above. Tissue sections were incubated with terminal deoxynucleotidyl transferase (TdT) enzyme for 1.5 h at 37° C. in order to bind to exposed 3′-OH ends of DNA fragments generated in response to apoptotic signals. The reaction was terminated with stop solution and fluorescent apoptotic signal was detected using a fluorescence microscope (Zeiss LSM 510 inverted confocal). Ten fields of each tissue section were randomly chosen and a total of 50 cells per field were counted. The index of apoptosis was determined (TUNEL positive myocytes/total myocytes counted×100%) from a total of 20 fields per heart, and the assays were performed in a blinded manner.

[3] = tested on: adult rat ventricular cardiomyocytes (ARVCs); experiment: Long-term culture of ARVCs with repeat 800 μM peptide (cytotoxicity, lifespan)
[4] = 3 mg/kg in three doses, 45 min cardioplegic arrest, reperfusion 3, 6, 24 h

Ac-Gln-Ala-Trp [ANXA1sp]
ARVC injury, time course ([1]; 10 μM, 6 h and 24 h post hypoxia/reoxygenation): consistently reduces ARVC injury | Troponin I release from cardiomyocytes ([1]; 2 h OGD and 6 h reoxygenation, 5, 10, 30, and 60 μM): significantly reduced Troponin I release | Concentration of maximal effect on Troponin I release ([1]; 2 h OGD and 6 h reoxygenation, range 5-60 μM): 10 µM | ARVC viability (% rod-shaped cardiomyocytes) ([1]; 2 h OGD, reoxygenation): increased percentage of characteristic rod-shaped viable cardiomyocytes | Cardiomyocyte apoptosis (Cell Death Detection ELISA) ([1]; 2 h OGD, reoxygenation): reduced cardiomyocyte apoptosis | Myocardial leukocyte extravasation (MPO) ([2]; 3 mg/kg): significantly reduced | Plasma HFABP (myonecrosis biomarker) [2, 4]: significantly reduced | Plasma TnI (myonecrosis biomarker) [2, 4]: significantly reduced | LV systolic function, LV-FAC ([2]; 3 mg/kg, 24 h post-reperfusion, P=0.02 vs vehicle): 75±6% | Myocardial apoptosis, TUNEL positive nuclei ([2]; 3 mg/kg, reperfusion 24 h): significantly reduced | Myocardial levels of activated caspase-3 ([2]; 3 mg/kg, reperfusion 24 h): lower myocardial levels of activated caspase-3 | Rod-shape survival time relative to cells treated with Ac2-26 [3]: 5 times longer | Rod-shape survival time relative to untreated cells [3]: 10 times longer | Lifespan of adult ventricular cardiomyocytes ([3]; cultured ARVCs): increases lifespan of adult ventricular cardiomyocytes

Ac-W^10Q^11A^12 [scrPEP, reference compound]
Cardioprotection in the rat ([2]; cardioplegic arrest, reperfusion 3 h): did not afford cardioprotection
